Laboratory results as given in PMC12820563.
This is one part of the list. The list includes weakly bound sequences.

The sequences below were run against T1, MBP-FoxP3dN (UniProt Q99JB6) (assay: PD-seq (MBP pull-down with sequencing)). Conditions: 20 mM Tris-HCl pH 7.5, 100 mM NaCl, 1.5 mM MgCl2, 0.4 uM protein, 0.1 uM dsDNA library, 30 min, room temperature, amylose pull-down; high values mean tight binding; double strand, one strand shown.
T1 sequence: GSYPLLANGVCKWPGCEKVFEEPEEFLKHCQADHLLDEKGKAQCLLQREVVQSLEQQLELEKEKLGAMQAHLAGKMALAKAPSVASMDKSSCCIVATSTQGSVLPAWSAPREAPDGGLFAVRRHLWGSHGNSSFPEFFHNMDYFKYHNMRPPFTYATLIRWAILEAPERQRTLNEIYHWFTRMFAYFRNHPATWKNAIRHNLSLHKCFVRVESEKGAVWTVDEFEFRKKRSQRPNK
Sequence “GATGATTGTTCTCCCAGCTGATGAATTCCTATTTTCGAGTAAACAAATTTTCCTAATCTTTCTGTTCAAGCGCCATCTAC” has a binding signal (RPM ratio (pull-down/input)) of 0.551. Work on “GATGATTGTTCTCCCAGCTGATGAATTCACAGCGTCGAGTAAACAAATTTTCCTAATCTTTCTGTTCAAGCGCCATCTAC” yielded a binding signal (RPM ratio (pull-down/input)) of 0.437. Sequence “GATGATTGTTCTCCCAGCTGATGAATTCCCGGGCTCGAGTAAACAAATTTTCCTAATCTTTCTGTTCAAGCGCCATCTAC” has a binding signal (RPM ratio (pull-down/input)) of 0.168. Sequence “GATGATTGTTCTCCCAGCTGATGAATTCGTTGAGTCGAGTAAACAAATTTTCCTAATCTTTCTGTTCAAGCGCCATCTAC” has a binding signal (RPM ratio (pull-down/input)) of 0.74. Sequence “GATGATTGTTCTCCCAGCTGATGAATTATTTAGTTCGAGTAAACAAATTTTCCTAATCTTTCTGTTCAAGCGCCATCTAC” has a binding signal (RPM ratio (pull-down/input)) of 1.29. “GATGATTGTTCTCCCAGCTGATGAATTACAATTCTCGAGTAAACAAATTTTCCTAATCTTTCTGTTCAAGCGCCATCTAC” was tested, and the binding signal (RPM ratio (pull-down/input)) was 0.786. With “GATGATTGTTCTCCCAGCTGATGAATTTAAGGTGTCGAGTAAACAAATTTTCCTAATCTTTCTGTTCAAGCGCCATCTAC” the binding signal (RPM ratio (pull-down/input)) was 0.772. For “GATGATTGTTCTCCCAGCTGATGAATTTCGATATTCGAGTAAACAAATTTTCCTAATCTTTCTGTTCAAGCGCCATCTAC”, the binding signal (RPM ratio (pull-down/input)) was 1.29. Work on “GATGATTGTTCTCCCAGCTGATGAATTTCCTGACTCGAGTAAACAAATTTTCCTAATCTTTCTGTTCAAGCGCCATCTAC” yielded a binding signal (RPM ratio (pull-down/input)) of 0.182. Work on “GATGATTGTTCTCCCAGCTGATGAATTTCTTCCATCGAGTAAACAAATTTTCCTAATCTTTCTGTTCAAGCGCCATCTAC” yielded a binding signal (RPM ratio (pull-down/input)) of 0.2. “GATGATTGTTCTCCCAGCTGATGAATTAGATCGGTCGAGTAAACAAATTTTCCTAATCTTTCTGTTCAAGCGCCATCTAC” was tested, and the binding signal (RPM ratio (pull-down/input)) was 0.237. In the case of “GATGATTGTTCTCCCAGCTGATGAATTCAGTTGGTCGAGTAAACAAATTTTCCTAATCTTTCTGTTCAAGCGCCATCTAC”, the binding signal (RPM ratio (pull-down/input)) is reported as 2.43. In the case of “GATGATTGTTCTCCCAGCTGATGAATTAGGAGCATCGAGTAAACAAATTTTCCTAATCTTTCTGTTCAAGCGCCATCTAC”, the binding signal (RPM ratio (pull-down/input)) is reported as 0.862. In the case of “GATGATTGTTCTCCCAGCTGATGAATTGTAAAAGTCGAGTAAACAAATTTTCCTAATCTTTCTGTTCAAGCGCCATCTAC”, the binding signal (RPM ratio (pull-down/input)) is reported as 0.185. Sequence “GATGATTGTTCTCCCAGCTGATGAATTACAATCTTCGAGTAAACAAATTTTCCTAATCTTTCTGTTCAAGCGCCATCTAC” has a binding signal (RPM ratio (pull-down/input)) of 0.52. “GATGATTGTTCTCCCAGCTGATGAATTCGCGCGCTCGAGTAAACAAATTTTCCTAATCTTTCTGTTCAAGCGCCATCTAC” gave a binding signal (RPM ratio (pull-down/input)) of 0.634. “GATGATTGTTCTCCCAGCTGATGAATTTGTCTCATCGAGTAAACAAATTTTCCTAATCTTTCTGTTCAAGCGCCATCTAC” showed a binding signal (RPM ratio (pull-down/input)) of 2.75. “GATGATTGTTCTCCCAGCTGATGAATTAATCATGTCGAGTAAACAAATTTTCCTAATCTTTCTGTTCAAGCGCCATCTAC” showed a binding signal (RPM ratio (pull-down/input)) of 0.69. “GATGATTGTTCTCCCAGCTGATGAATTGGACAGATCGAGTAAACAAATTTTCCTAATCTTTCTGTTCAAGCGCCATCTAC” gave a binding signal (RPM ratio (pull-down/input)) of 0.195. Sequence “GATGATTGTTCTCCCAGCTGATGAATTCGATAATTCGAGTAAACAAATTTTCCTAATCTTTCTGTTCAAGCGCCATCTAC” has a binding signal (RPM ratio (pull-down/input)) of 0.369. Work on “GATGATTGTTCTCCCAGCTGATGAATTTTGTCTCTCGAGTAAACAAATTTTCCTAATCTTTCTGTTCAAGCGCCATCTAC” yielded a binding signal (RPM ratio (pull-down/input)) of 2.39. With “GATGATTGTTCTCCCAGCTGATGAATTTTCCAATTCGAGTAAACAAATTTTCCTAATCTTTCTGTTCAAGCGCCATCTAC” the binding signal (RPM ratio (pull-down/input)) was 0.25. Work on “GATGATTGTTCTCCCAGCTGATGAATTCTGAGGTTCGAGTAAACAAATTTTCCTAATCTTTCTGTTCAAGCGCCATCTAC” yielded a binding signal (RPM ratio (pull-down/input)) of 0.379. “GATGATTGTTCTCCCAGCTGATGAATTTACGCGGTCGAGTAAACAAATTTTCCTAATCTTTCTGTTCAAGCGCCATCTAC” gave a binding signal (RPM ratio (pull-down/input)) of 0.407. For “GATGATTGTTCTCCCAGCTGATGAATTCATCAACTCGAGTAAACAAATTTTCCTAATCTTTCTGTTCAAGCGCCATCTAC”, the binding signal (RPM ratio (pull-down/input)) was 0.418. “GATGATTGTTCTCCCAGCTGATGAATTATTTCCATCGAGTAAACAAATTTTCCTAATCTTTCTGTTCAAGCGCCATCTAC” was tested, and the binding signal (RPM ratio (pull-down/input)) was 0.352. In the case of “GATGATTGTTCTCCCAGCTGATGAATTCTTAAAATCGAGTAAACAAATTTTCCTAATCTTTCTGTTCAAGCGCCATCTAC”, the binding signal (RPM ratio (pull-down/input)) is reported as 0.218. “GATGATTGTTCTCCCAGCTGATGAATTGAAGAAATCGAGTAAACAAATTTTCCTAATCTTTCTGTTCAAGCGCCATCTAC” was tested, and the binding signal (RPM ratio (pull-down/input)) was 0.256. Sequence “GATGATTGTTCTCCCAGCTGATGAATTTACAAACTCGAGTAAACAAATTTTCCTAATCTTTCTGTTCAAGCGCCATCTAC” has a binding signal (RPM ratio (pull-down/input)) of 0.627. In the case of “GATGATTGTTCTCCCAGCTGATGAATTCCCATTATCGAGTAAACAAATTTTCCTAATCTTTCTGTTCAAGCGCCATCTAC”, the binding signal (RPM ratio (pull-down/input)) is reported as 0.458. In the case of “GATGATTGTTCTCCCAGCTGATGAATTAGACCGGTCGAGTAAACAAATTTTCCTAATCTTTCTGTTCAAGCGCCATCTAC”, the binding signal (RPM ratio (pull-down/input)) is reported as 0.227.
